PubChem BioAssay AID485297 (National Center for Advancing Translational Sciences (NCATS), 2010)
Among all 320,000 compounds or so, about 9,100 (2.8%) were called active. This list was built around the results that the source calls inconclusive (neither active nor inactive); the mix of calls is not that of the screen. Calls come from the whole dose curve; as a rule, active = well fitted activation curve with a large enough effect; inconclusive = small, poorly fitted or top-dose-only effect; inactive = no such curve, though single readings can be large or run the other way. Potencies beside an inconclusive call are fits to weak or partial responses and may not hold up.

Assay: qHTS Assay for Rab9 Promoter Activators; note: nearly all actives have a fitted effect of over 60% in size
Conditions: Huh7 Rab9 promoter-luciferase reporter, luminescence, 24 h; series mostly up to 9.22 µM
Method in brief: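 Promoter activation is measured as luciferase luminescence in Huh7 cells stably transfected with a Rab9 promoter–luciferase construct, following 24 h compound exposure at 37 °C and 10 min reagent incubation at ambient temperature.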
Potency is the fitted concentration of half-maximal effect; tags give direction and shape of the fitted curve.

Potency, inactive:
CCc1cc2c(SCC(=O)NC(=O)c3cccn3C)ncnc2s1, COc1ccc(-c2c(NC(=O)CC(C)C)n(C)c3ccccc3c2=O)cc1OC, CC(C)CCNC(=O)c1ccc2c(SCC(=O)O)c3c(nc2c1)CCCC3, CCOc1ccc(C2=NNC(c3cccs3)=Nc3ccc(OC)cc32)cc1OCC, O=C(Cc1ccccc1)NCCCN1CCN(CCCNC(=O)Cc2ccccc2)CC1, Cc1ccc(C2=NN(C(=O)CSc3nnnn3C)C(c3ccco3)C2)cc1 (centres undefined), CN(C)/C(Cn1cncn1)=C1/N=C(c2ccccc2)OC1=O, Cc1nnc2sc(SCC(=O)Nc3ccc(Cl)cc3)nn2c1=O, O=C(Nc1cc(C(=O)N2CCN(c3ccccc3O)CC2)ccc1Cl)c1cccs1, CCN(CC)CCCNC(=O)CSc1nc(-c2ccc(F)cc2)cc(C(F)(F)F)n1, O=C(O)Cn1cc(/C=N/Nc2ccc([N+](=O)[O-])cn2)c2ccccc21, COc1ccc(OCc2nnc(SCC(=O)c3c(N)n(C)c(=O)n(C)c3=O)n2-c2ccccc2F)cc1, O=C(Nc1ccc2[nH]c3c(c2c1)CCCC3)c1ccco1, CC(C)OCCCNC(=O)c1cccc(NC(=O)c2ccccc2)c1, O=C(CCCCl)NC(=S)Nc1ccc(CN2CCOCC2)cc1, CC1(C)OC(=O)C(=Cc2ccc(-c3ccc(Cl)c(C(=O)O)c3)o2)C(=O)O1, O=C(Nc1ccc(Cl)cn1)c1cccc(S(=O)(=O)N2CCCC2)c1, CSC(=S)N/N=C(\C)c1ccc(Br)cc1, Cc1cc(NC(=O)c2cc(-c3ccc(C)s3)nc3ccccc23)no1

Potency, active:
CC(C)OC(=O)c1ccc2nc3ccccc3nc2c1 0.708 µM, O=c1c2ccccc2ncn1/N=C/c1ccccc1 0.447 µM, O=C(Nc1cccc([N+](=O)[O-])c1)c1[nH]ncc1Cl 3.98 µM, Cc1ccc(N=C/C(C(=O)C(F)(F)F)=C(\O)c2cccs2)cc1 1.78 µM, Cc1cc(C)n(-c2nnc3c4ccccc4n(C)c3n2)n1 2.51 µM, CCC1CCc2c(sc(NC(=O)c3ccco3)c2C(N)=O)C1 (centres undefined) 2.82 µM, c1ccc(-c2cn(CC3CCCCC3)nn2)cc1 2.24 µM, COc1cc(CO)ccc1OCc1ccc(Cl)nc1 3.16 µM, O=C(c1cc(-c2ccc(Cl)cc2Cl)on1)N1CCCC1 1 µM, N#Cc1ccc(C(=O)NC2CCCCCCC2)cc1 1.41 µM, Cc1ccc(OCc2nc(-c3ccccc3)no2)cc1 3.98 µM

Potency, inconclusive:
COc1ccc(-n2ncc3c(NCCN4CCOCC4)ncnc32)cc1 5.62 µM [activator, single point], S=C1NC(c2ccccc2)N2C(=S)NC(c3ccccc3)N12 (centres undefined) 3.16 µM [activator, single point], CC1CCC(NC(=O)c2ccc3snnc3c2)CC1 (centres undefined) 3.16 µM [activator, partial curve], O=C1/C(=C/N(C(=O)c2ccco2)c2ccc(Cl)cc2)Sc2ccccc21 3.16 µM [activator, single point], NS(=O)(=O)c1ccc(N/N=C/C=C/c2ccccc2[N+](=O)[O-])cc1 3.55 µM [activator, partial curve], CCOc1ccc(OCc2ccc(C(=O)N3CCc4ccccc4C3)o2)cc1 4.47 µM [activator, single point], NC1=NC(=O)CC(C(=O)NCCc2ccccc2)S1 (centres undefined) 6.31 µM [activator, single point], Cc1cccc(NC(=O)c2ccc(S(=O)(=O)NCc3ccco3)cc2)n1 5.62 µM [activator, single point], COc1cc(N/N=C/c2ccccc2O)ncn1 5.62 µM [activator, single point], Cc1cccc(NC(=O)COc2ccc(Br)cc2C)n1 3.55 µM [activator, single point], Cc1cc(C)c2nc3sc(C(=O)N4CCOCC4)c(N)c3cc2c1 0.631 µM [activator, partial curve], C=CCNC(=O)c1ccc(OC2CCN(S(=O)(=O)N(C)C)CC2)cc1 1.78 µM [activator, partial curve], CC1=NN(C(N)=S)C(=O)C1N=Nc1cccc(Cl)c1 (centres undefined) 5.62 µM [activator, single point], CNC(=S)N1CCN(c2nc3ccccc3s2)CC1 1.12 µM [activator, partial curve], Cc1ccc(-c2cnc(-c3ccncc3)o2)cc1 5.62 µM [activator, single point], CC(C)Sc1ccc(C(=O)Nc2ccc(F)cc2F)cn1 5.62 µM [activator, single point], O=C(/C=C/c1ccc(Cl)c(Cl)c1)N1CCOCC1 3.16 µM [activator, single point], N/C(=N\OC(=O)CCCN1C(=O)c2ccccc2C1=O)c1ccccn1 1.26 µM [activator, single point], COCCN(C(=O)c1ccco1)c1nnc(-c2ccc(F)cc2)s1 3.55 µM [activator, partial curve], CCCCOc1ccc(CSc2ncn[nH]2)cc1 1.41 µM [activator, partial curve], COCC(=O)N(C)c1nnc(-c2cnc(C)cn2)s1 0.1 µM [activator, full curve, poor fit], COC(=O)c1ccc(Nc2ncnc3sccc23)cc1 3.16 µM [activator, single point], O=C(N/N=C/c1cccnc1)c1ccc(F)cc1 6.31 µM [activator, single point], Cc1cc2ncn(C(=O)N3CCC(C)CC3)c2cc1C 3.98 µM [activator, single point]
